{"source": "PubChem BioAssay AID488969", "about": "(Vanderbilt High Throughput Screening Facility, 2010)", "note": "In all, about 110,000 compounds were measured (“z-score”: median about -0.1, highest 2% from about 2 on). This is one part of the list. Activity calls are given as the source filed them.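 Rule for the calls: active = z-score in the third read window above 3 or below -3; inactive = the rest.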"}
{"target": "Metabotropic glutamate receptor 8 (Rattus norvegicus) (UniProt P70579)", "sequence (P70579 whole entry, looked up)": "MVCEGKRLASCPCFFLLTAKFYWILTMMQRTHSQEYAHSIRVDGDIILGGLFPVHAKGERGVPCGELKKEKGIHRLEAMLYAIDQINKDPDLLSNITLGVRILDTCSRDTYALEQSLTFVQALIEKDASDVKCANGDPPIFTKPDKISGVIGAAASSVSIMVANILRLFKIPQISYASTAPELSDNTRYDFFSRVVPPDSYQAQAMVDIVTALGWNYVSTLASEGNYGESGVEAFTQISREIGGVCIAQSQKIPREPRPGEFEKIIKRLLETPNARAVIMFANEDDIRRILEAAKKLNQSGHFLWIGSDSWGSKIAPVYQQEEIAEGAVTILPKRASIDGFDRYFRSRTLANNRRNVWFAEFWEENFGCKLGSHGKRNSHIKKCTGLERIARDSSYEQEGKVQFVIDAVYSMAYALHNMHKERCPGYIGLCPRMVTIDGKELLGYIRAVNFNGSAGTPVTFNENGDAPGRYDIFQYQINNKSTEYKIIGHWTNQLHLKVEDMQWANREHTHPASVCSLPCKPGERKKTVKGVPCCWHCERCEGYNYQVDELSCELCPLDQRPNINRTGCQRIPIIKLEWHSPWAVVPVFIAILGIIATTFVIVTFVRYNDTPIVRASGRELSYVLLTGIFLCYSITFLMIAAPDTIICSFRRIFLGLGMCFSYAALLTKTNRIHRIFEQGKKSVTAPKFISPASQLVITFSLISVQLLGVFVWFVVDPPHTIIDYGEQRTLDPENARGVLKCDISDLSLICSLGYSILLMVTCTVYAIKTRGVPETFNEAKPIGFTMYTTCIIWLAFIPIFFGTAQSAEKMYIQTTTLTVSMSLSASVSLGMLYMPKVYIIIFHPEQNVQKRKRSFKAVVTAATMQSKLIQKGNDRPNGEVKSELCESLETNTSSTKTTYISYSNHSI", "experiment": "mGluR8 Gi/Go-coupled signaling modulation – cell-based, rat, thallium flux, HTS, primary screen (AID 488969)", "details": "HEK293 rat mGluR8, GIRK (G protein-gated inwardly rectifying potassium channel) thallium flux, FluoZin2; at 10 µM; stronger effect = higher value; submaximal glutamate (EC20) added with thallium"}
{"smiles": "Cc1ccc2nc(-c3ccc(NC(=O)COC(=O)c4ccco4)cc3)sc2c1", "z-score": -0.121}
{"smiles": "CCCc1nc2ccccc2c(=O)n1/N=C/c1ccc(O)cc1O", "z-score": 0.0715}
{"smiles": "COCCNC(=O)COC(=O)c1[nH]c(C)c(C(C)=O)c1C", "z-score": 0.0417}
{"smiles": "CC(C)OC(=O)c1nnn(-c2nonc2N)c1CSc1ccccn1", "z-score": -0.642}
{"smiles": "CCOC(=O)c1cnc2c(OC)cccc2c1N1CCN(c2ccccc2OC)CC1", "z-score": 0.407}
{"smiles": "Cc1ccc(C(=O)NCCCN2CCOCC2)cc1", "z-score": 0.146}
{"smiles": "O=C(NCc1cccnc1)C1c2ccccc2C(=O)N1Cc1ccccc1", "note": "(stereo unspecified)", "z-score": -0.0928}
{"smiles": "COc1cc(C2NC(=O)NC(O)(C(F)(F)F)C2C(=O)c2cccs2)ccc1O", "note": "(stereo unspecified)", "z-score": -0.852}
{"smiles": "Cc1ccc(C(=O)Oc2cc(-c3ccccc3)no2)cc1", "z-score": 0.454}
{"smiles": "O=C(CSc1nnc(-c2ccc(O)cc2)n1Cc1ccco1)c1cccs1", "z-score": -0.786}
{"smiles": "CCCc1ccc(OCc2ccc(C(=O)OC)o2)c(OC)c1", "z-score": -0.263}
{"smiles": "Clc1ccc(-n2nnnc2CN2CCCCC2)cc1Cl", "z-score": 0.318}
{"smiles": "Nn1c(SCC(=O)Nc2ccc(F)cc2)nnc1-c1cccnc1", "z-score": 0.328}
{"smiles": "CN(C)CCNc1ncnc2c1cnn2-c1ccc(Cl)cc1", "z-score": "active: 3.51"}
{"smiles": "Cc1cc(NC(=O)c2oc3ccccc3c2C)ccc1-n1cnnn1", "z-score": 1.86}
{"smiles": "O=C(CSc1nc2ccccc2[nH]1)NCC1CCCO1", "note": "(stereo unspecified)", "z-score": -0.0727}
{"smiles": "Cc1cccc(Sc2c(C=O)c3ccccc3n2C)c1", "z-score": -0.459}
{"smiles": "Cc1ccc(CN2CCN(/N=C/c3cccnc3)CC2)cc1", "z-score": 0.00777}
{"smiles": "O=S(=O)(NCC(c1cccnc1)N1CCN(c2ccc(F)cc2)CC1)c1cc(F)ccc1F", "note": "(stereo unspecified)", "z-score": -0.359}
{"smiles": "COc1ccc(-c2nc(C(N)=O)c3[nH]c(=O)n(-c4cccc(Cl)c4)c3n2)cc1OC", "z-score": -0.301}
{"smiles": "CSc1ccc(OC2CCCCC2NS(=O)(=O)c2ccccc2)cc1", "note": "(stereo unspecified)", "z-score": -0.0315}
{"smiles": "Cc1cc(C(=O)NCc2ccccc2)no1", "z-score": 0.651}
{"smiles": "Clc1ccc(Cn2nc(-c3ccccc3)nc2-c2ccccc2)cc1", "z-score": -0.283}
{"smiles": "Cc1ccc(S(=O)(=O)Cn2nnnc2C(CC(C)C)N2CCN(c3ccc(F)cc3)CC2)cc1", "note": "(stereo unspecified)", "z-score": 0.255}
{"smiles": "CS(=O)(=O)N1CCN(c2ccc([N+](=O)[O-])c(NCc3ccccc3)c2)CC1", "z-score": -0.131}
{"smiles": "CNc1oc(/C=C/c2ccccc2)nc1C#N", "z-score": -0.214}
{"smiles": "Cn1cc(Br)c(C(=O)NC2C3CC4CC(C3)CC2C4)n1", "note": "(stereo unspecified)", "z-score": -0.0702}
{"smiles": "Cc1ccc([N+](=O)[O-])cc1-c1ccc2cccc(C)c2n1", "z-score": 0.0589}
{"smiles": "COc1cccc(/C=C2\\C(=O)N(c3cccc(C)c3)C(=O)c3ccccc32)c1", "z-score": -0.152}
{"smiles": "COC(=O)c1ccccc1NC(=O)c1cc2n(n1)C(C(F)F)CC(C(F)F)N2", "note": "(stereo unspecified)", "z-score": -0.0566}
{"smiles": "COc1cccc(NC(=O)c2cc(C(=O)Nc3cccc(OC)c3)n(C)n2)c1", "z-score": -0.513}
